Data as given in patent US20190322765A1 (Hoffmann-La Roche, published 2019).
Residue numbers refer to the chain shown, from its start. Names may count otherwise. “And” between values parts separate entries of the source, which are not always exact repeats. Equal entries are not always repeated.

Experiments:
human FAP-His [1] = target: T1, human FAP-His (human, UniProt Q12884 27-760); experiment: SPR, His-tagged human FAP captured via anti-His, apparent bivalent affinity (avidity), 25°C
T1 construct: also called Hu FAP; His-tagged human FAP; not shown: His tag

[2] = target: T2, human IL-2R βγ heterodimer, subunit-Fc knobs-into-holes fusion (human); experiment: SPR, receptor on CM5, 25°C, apparent KD, 1:1 fit
T2 construct: The entries may hold a leader peptide; also called Hu IL-2R βγ; human IL2-R β knob γ hole heterodimer

[3] = target: T3, human IL-2R α-subunit, monomeric, with AcTev cleavage site and Avi His tag (human); experiment: SPR, receptor on CM5, 25°C
T3 construct: also called Hu IL-2R α; CD25
T3 chain: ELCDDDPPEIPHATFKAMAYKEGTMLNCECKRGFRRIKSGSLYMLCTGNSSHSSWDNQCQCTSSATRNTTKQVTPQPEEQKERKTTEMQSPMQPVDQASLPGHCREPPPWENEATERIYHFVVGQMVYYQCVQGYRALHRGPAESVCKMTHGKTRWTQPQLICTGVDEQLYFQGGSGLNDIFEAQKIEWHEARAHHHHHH

[4] = target: T4, human FAP expressed on stably transfected HEK293 cells (human, UniProt Q12884 1-760); experiment: FACS on stably transfected HEK293 cells
T4 construct: whole, on cells

[5] = target: T5, cynomolgus IL-2R α-subunit, recombinant monomeric (cynomolgus, UniProt H6WS54 22-240); experiment: SPR, receptor on CM5, 25°C, 1:1 fit
T5 construct: also called Cyno IL-2R α
T5 sequence: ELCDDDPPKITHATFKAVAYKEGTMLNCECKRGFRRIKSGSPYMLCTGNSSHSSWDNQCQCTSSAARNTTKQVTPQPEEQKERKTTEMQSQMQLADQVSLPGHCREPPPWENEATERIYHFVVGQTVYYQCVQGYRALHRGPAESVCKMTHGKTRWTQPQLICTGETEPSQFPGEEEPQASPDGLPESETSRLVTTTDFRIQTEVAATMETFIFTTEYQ

[6] = target: T3, human IL-2R α-subunit, monomeric, with …; experiment: SPR, receptor on CM5, 25°C, 1:1 fit
[7] = target: T6, murine IL-2R α-subunit, recombinant monomeric (murine, UniProt P01590 22-236, limits assumed); experiment: SPR, receptor on CM5, 25°C, 1:1 fit
T6 construct: also called Mu IL-2R α
T6 sequence (looked up): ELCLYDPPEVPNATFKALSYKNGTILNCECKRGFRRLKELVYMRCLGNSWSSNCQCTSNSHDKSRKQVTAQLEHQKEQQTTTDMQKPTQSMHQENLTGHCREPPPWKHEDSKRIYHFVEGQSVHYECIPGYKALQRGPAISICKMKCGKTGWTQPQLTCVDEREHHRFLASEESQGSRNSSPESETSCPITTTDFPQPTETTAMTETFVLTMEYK

[8] = target: T5, cynomolgus IL-2R α-subunit, recombinant …; experiment: SPR, receptor on CM5, 37°C, 1:1 fit
[9] = target: T3, human IL-2R α-subunit, monomeric, with …; experiment: SPR, receptor on CM5, 37°C, 1:1 fit
[10] = target: T6, murine IL-2R α-subunit, recombinant …; experiment: SPR, receptor on CM5, 37°C, 1:1 fit
[11] = target: T7, cynomolgus IL-2R βγ heterodimer (β knob γ hole Fc fusion) (cynomolgus); experiment: SPR, receptor on CM5, 37°C, 1:1 fit
T7 construct: also called Cyno IL-2R βγ

[12] = target: T2, human IL-2R βγ heterodimer, subunit-Fc …; experiment: SPR, receptor on CM5, 37°C, 1:1 fit
[13] = target: T8, murine IL-2R βγ heterodimer (β knob γ hole Fc fusion) (murine, UniProt P16297 27-240; P34902 23-263); experiment: SPR, receptor on CM5, 37°C, 1:1 fit
T8 construct: also called Mu IL-2R βγ; mouse IL-2R βγ heterodimer; not shown: Fc knob/hole part
T8 sequence (looked up) 1: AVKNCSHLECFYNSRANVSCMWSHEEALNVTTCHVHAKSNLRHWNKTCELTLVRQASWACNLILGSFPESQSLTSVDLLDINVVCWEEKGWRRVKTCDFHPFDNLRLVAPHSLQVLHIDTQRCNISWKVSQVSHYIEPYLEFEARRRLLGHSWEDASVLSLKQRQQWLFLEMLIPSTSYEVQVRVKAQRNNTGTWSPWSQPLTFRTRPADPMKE
T8 sequence (looked up) 2: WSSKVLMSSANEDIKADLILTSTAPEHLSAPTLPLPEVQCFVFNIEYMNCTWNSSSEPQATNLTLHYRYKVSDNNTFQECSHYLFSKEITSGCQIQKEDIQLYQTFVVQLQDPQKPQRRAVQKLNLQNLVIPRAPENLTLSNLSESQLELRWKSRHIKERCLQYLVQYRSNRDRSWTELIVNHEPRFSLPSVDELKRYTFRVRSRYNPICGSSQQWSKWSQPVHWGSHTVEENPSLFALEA

[14] = target: T7, cynomolgus IL-2R βγ heterodimer (β knob …); experiment: SPR, receptor on CM5, 25°C, 1:1 fit
[15] = target: T2, human IL-2R βγ heterodimer, subunit-Fc …; experiment: SPR, receptor on CM5, 25°C, 1:1 fit
[16] = target: T8, murine IL-2R βγ heterodimer (β knob γ …); experiment: SPR, receptor on CM5, 25°C, 1:1 fit
[17] = target: T4, human FAP expressed on stably …; experiment: FACS on FAP-expressing HEK cells
human FAP-His [18] = target: T1, human FAP-His; experiment: SPR bridging: construct captured on immobilized human IL-2R βγ, human FAP analyte, 1:1 fit, 25°C
[19] = target: T3, human IL-2R α-subunit, monomeric, with …; experiment: SPR, receptor on CM5, IL-2 analyte, 25°C, kinetic
[20] = target: T3, human IL-2R α-subunit, monomeric, with …; experiment: SPR, receptor on CM5, IL-2 analyte, 25°C, steady state

B1: 4G8 IgG-IL-2 qm (other)
heavy 1: [no letters for about 100 residues][no letters for about 120 residues][no letters for human IgG1 Fc with changes]GGGGSGGGGSGGGGSAPASSSTKKTQLQLEHLLLDLQMILNGINNYKNPKLTRMLTAKFAMPKKATELKHLQCLEEELKPLEEVLNGAQSKNFHLRPRDLISNINVIVLELKGSETTFMCEYADETATIVEFLNRWITFAQSIISTLT
heavy 2: [no letters for about 100 residues]GWLGNFDYWGQGTLVTVSSASTKGPSVFPLAPSSKSTSGGTAALGCLVKDYFPEPVTVSWNSGALTSGVHTFPAVLQSSGLYSLSSVVTVPSSSLGTQTYICNVNHKPSNTKVDKKVEPKSCDKTHTCPPCPAPEAAGGPSVFLFPPKPKDTLMISRTPEVTCVVVDVSHEDPEVKFNWYVDGVEVHNAKTKPREEQYNSTYRVVSVLTVLHQDWLNGKEYKCKVSNKALGAPIEKTISKAKGQPREPQVCTLPPSRDELTKNQVSLSCAVKGFYPSDIAVEWESNGQPENNYKTTPPVLDSDGSFFLVSKLTVDKSRWQQGNVFSCSVMHEALHNHYTQKSLSLSPGK
light: EIVLTQSPGTLSLSPGERATLSCRASQSVSRSYLAWYQQKPGQAPRLLIIGASTRATGIPDRFSGSGSGTDFTLTISRLEPEDFAVYYCQQGQVIPPTFGQGTKVEIKRTVAAPSVFIFPPSDEQLKSGTASVVCLLNNFYPREAKVQWKVDNALQSGNSQESVTEQDSKDSTYSLSSTLTLSKADYEKHKVYACEVTHQGLSSPVTKSFNRGEC
notes: IgG with knob-into-hole heavy chains, P329G L234A L235A; one IL-2 qm fused to the C-terminus of the knob heavy chain; also called FAP-targeted 4G8-based IgG-IL-2 qm immunoconjugate
For B1, the Kd (human FAP-His [1]) was 0.1 nM, the Kd [2] was 5.9 nM and the binding result [3] was “no binding (tested: 300 nM)”. It also gave an EC50 [4] of 0.9 nM.

B2: 28H1 IgG-IL-2 qm (other)
heavy 1: EVQLLESGGGLVQPGGSLRLSCAASGFTFSSHAMSWVRQAPGKGLEWVSAIWASGEQYYADSVKGRFTISRDNSKNTLYLQMNSLRAEDTAVYYCAKGWLGNFDYWGQGTLVTVSSASTKGPSVFPLAPSSKSTSGGTAALGCLVKDYFPEPVTVSWNSGALTSGVHTFPAVLQSSGLYSLSSVVTVPSSSLGTQTYICNVNHKPSNTKVDKKV[no letters for human IgG1 Fc with changes]GGGGSGGGGSGGGGSAPASSSTKKTQLQLEHLLLDLQMILNGINNYKNPKLTRMLTAKFAMPKKATELKHLQCLEEELKPLEEVLNGAQSKNFHLRPRDLISNINVIVLELKGSETTFMCEYADETATIVEFLNRWITFAQSIISTLT
heavy 2: EVQLLESGGGLVQPGGSLRLSCAASGFTFSSHAMSWVRQAPGKGLEWVSAIWASGEQYYADSVKGRFTISRDNSKNTLYLQMNSLRAEDTAVYYCAKGWLGNFDYWGQGTLVTVSSASTKGPSVFPLAPSSKSTSGGTAALGCLVKDYFPEPVTVSWNSGALTSGVHTFPAVLQSSGLYSLSSVVTVPSSSLGTQTYICNVNHKPSNTKVDKKVEPKSCDKTHTCPPCPAPEAAGGPSVFLFPPKPKDTLMISRTPEVTCVVVDVSHEDPEVKFNWYVDGVEVHNAKTKPREEQYNSTYRVVSVLTVLHQDWLNGKEYKCKVSNKALGAPIEKTISKAKGQPREPQVCTLPPSRDELTKNQVSLSCAVKGFYPSDIAVEWESNGQPENNYKTTPPVLDSDGSFFLVSKLTVDKSRWQQGNVFSCSVMHEALHNHYTQKSLSLSPGK
light: B1 light
notes: IgG with knob-into-hole heavy chains, P329G L234A L235A; one IL-2 qm fused to the C-terminus of the knob heavy chain; also called FAP-targeted 28H1-based IgG-IL-2 qm immunoconjugate
In the case of B2, the Kd (human FAP-His [1]) is reported as 0.175 nM, the Kd [2] is reported as 6.2 nM and the binding result [3] is reported as “no binding (tested: 300 nM)”.

B3: 29B11 Fab-IL-2 wt-Fab (other)
heavy: EVQLLESGGGLVQPGGSLRLSCAASGFTFSSYAMSWVRQAPGKGLEWVSAIIGSGGITYYADSVKGRFTISRDNSKNTLYLQMNSLRAEDTAVYYCAKGWFGGFNYWGQGTLVTVSSASTKGPSVFPLAPSSKSTSGGTAALGCLVKDYFPEPVTVSWNSGALTSGVHTFPAVLQSSGLYSLSSVVTVPSSSLGTQTYICNVNHKPSNTKVDKKVEPKSCDSGGGGSGGGGSGGGG[no letters for about 150 residues]SGGGGSGGGGSGGGGEVQLLESGGGLVQPGGSLRLSCAASGFTFSSYAMSWVRQAPGKGLEWVSAIIGSGGITYYADSVKGRFTISRDNSKNTLYLQMNSLRAEDTAVYYCAKGWFGGFNYWGQGTLVTVSSASTKGPSVFPLAPSSKSTSGGTAALGCLVKDYFPEPVTVSWNSGALTSGVHTFPAVLQSSGLYSLSSVVTVPSSSLGTQTYICNVNHKPSNTKVDKKVEPKSCD
light: B1 light with S30T, R31S, I50N, G51V, A52G, T54R, Q93I, V94M, I95L
notes: also called 29B11 Fab-IL-2-Fab
For B3, the Kd [5] was 4.8 nM and 4.3 nM, the Kd [6] was 5 nM and 4.6 nM and the Kd [7] was 11.4 nM and 9.6 nM. For the same binder, the Kd [8] was 7.3 nM and 7.4 nM, the Kd [9] was 7.6 nM and 7.7 nM and the Kd [10] was 13.3 nM and 13.8 nM. For the same binder, the Kd [11] was 14 nM and 19 nM, the Kd [12] was 9.5 nM and 12.4 nM and the Kd [13] was 71 nM and 74 nM. For the same binder, the Kd [14] was 6.9 nM and 6.7 nM, the Kd [15] was 6.5 nM and 5.7 nM and the Kd [16] was 93 nM and 74 nM. The EC50 [17] was 0.66 nM and the Kd (human FAP-His [18]) was 0.32 nM.

B4: Naked IL-2 wt, pool 1 (His-tagged, C125A) (ligand)
chain: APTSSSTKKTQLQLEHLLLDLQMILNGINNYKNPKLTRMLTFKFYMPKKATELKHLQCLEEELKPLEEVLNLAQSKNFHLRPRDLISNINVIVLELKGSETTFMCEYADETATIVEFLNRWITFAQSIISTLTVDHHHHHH
notes: Pool 1 holds more of the larger (ca. 22 kDa) species; the pools putatively differ in O-glycosylation; also called naked wild-type IL-2 pool 1; in-house produced wild-type IL-2
B4 was tested, and the Kd [19] was 17.4 nM and 16.6 nM and the Kd [20] was 30.3 nM and 23.9 nM.

B5: Naked IL-2 wt, pool 2 (His-tagged, C125A) (ligand)
chain: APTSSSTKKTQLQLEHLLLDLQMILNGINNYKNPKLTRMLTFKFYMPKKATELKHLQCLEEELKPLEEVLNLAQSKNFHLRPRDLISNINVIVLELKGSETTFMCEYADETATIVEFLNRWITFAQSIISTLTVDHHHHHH
notes: Pool 2 holds more of the smaller (ca. 20 kDa) species; also called naked wild-type IL-2 pool 2; in-house produced wild-type IL-2
For B5, the Kd [19] was 10.6 nM and 10 nM and the Kd [20] was 19.7 nM and 17.6 nM.
